What all share (experiment): Viability of human cancer cell lines after 72 h of drug (GDSC screen)
Compound in one experiment: COc1cc2c(Oc3ccc(NC(=O)C4(C(=O)Nc5ccc(F)cc5)CC4)cc3F)ccnc2cc1OCCCN1CCOCC1 [XL-880]
The note with it: top dose 5.12 µM; top dose inferred. The method, then:
(§1)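 Human cancer cell lines in 384-well plates, medium with 10% serum, drug for 72 h over a 256-fold dose range (nine 2-fold or five 4-fold steps up to the top dose). Adherent lines were fixed and stained with the nucleic acid dye Syto60, suspension lines read with resazurin; signal relative to control wells, capped at 0 and 100%. One two-parameter sigmoid per drug and line, fitted in a mixed model over all curves with the slope shared within a line.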

Compound in the next experiment: Cn1nnc2c(C(N)=O)ncn2c1=O [Temozolomide]
As to conditions: top dose 30 µM. As to the method:
as §1

Compound in the next experiment: Oc1ccc2ccccc2c1SSc1c(O)ccc2ccccc12 [IPA-3]
As to conditions: top dose 32 µM; top dose inferred. As to the method:
as §1

Compound in another experiment: CN1CCc2c(c3ccccc3n2Cc2ccc(C(=O)NO)cc2)C1 [Tubastatin A]
The note with it: top dose 20 µM. As to the method: as §1

Compound in a further experiment: O=C(NOCC1CC1)c1ccc(F)c(F)c1Nc1ccc(I)cc1Cl [CI-1040]
The note with it: top dose 10 µM; top dose inferred. As to the method:
as §1

Compound in a further experiment: CN(C)C/C=C/C(=O)Nc1ccc(C(=O)Nc2cccc(Nc3nccc(-c4cccnc4)n3)c2)cc1 [ZG-10]
As to conditions: top dose 10 µM; top dose inferred. As to the method: as §1

By IC50 is meant the dose at which the fit gives 50% viability; a fit beyond the top or the lowest dose is shown as a bound at that dose. AUC is the area under the same curve over the 256-fold range up to the top dose, as a fraction; the more sensitive the line, the further below 1. For part of these data: An inferred top dose is not printed in the source and was worked back from the curve model. Bounds are passed on as bounds.

By IC50 is commonly meant the concentration at which inhibition is half-maximal.

For “DMS-53 (small cell lung carcinoma, adherent)”, the AUC in the experiment with XL-880 turned out to be 0.955; with Temozolomide, 0.983; with IPA-3 it was 0.987; with Tubastatin A it was 0.981; with CI-1040, 0.981; with ZG-10 it was 0.971. Moreover, the IC50 with XL-880 was more than 5.12 µM; with Temozolomide, more than 30 µM; with IPA-3, more than 32 µM; with Tubastatin A it was more than 20 µM; with CI-1040, more than 10 µM; in the experiment with ZG-10, more than 10 µM.

As for HT-1197 (bladder, adherent), the AUC turned out to be 0.866 with XL-880; 0.966 with Temozolomide; 0.737 with IPA-3; 0.973 with Tubastatin A; 0.918 with CI-1040; 0.969 with ZG-10. Moreover, the IC50 in the experiment with XL-880 is more than 5.12 µM; with Temozolomide, more than 30 µM; in the experiment with IPA-3, 10.9 µM; in the experiment with Tubastatin A, more than 20 µM; with CI-1040 it was more than 10 µM; in the experiment with ZG-10 it was more than 10 µM.

As to “A427 (non-small cell lung carcinoma, adherent)”, the AUC with XL-880 amounted to 0.712; with Temozolomide it was 0.974; with IPA-3 it was 0.92; with Tubastatin A, 0.966; with CI-1040, 0.756; in the experiment with ZG-10, 0.704. The IC50 in the experiment with XL-880 is 1.28 µM; with Temozolomide it was more than 30 µM; with IPA-3 it was more than 32 µM; with Tubastatin A, more than 20 µM; with CI-1040, 3.46 µM; with ZG-10, 2.37 µM.

Turning to HuO9 (osteosarcoma, adherent), the AUC in the experiment with XL-880 was determined as 0.619; with Temozolomide, 0.981; in the experiment with IPA-3, 0.981; in the experiment with Tubastatin A, 0.984; with CI-1040 it was 0.9; in the experiment with ZG-10, 0.607. Moreover, the IC50 with XL-880 is 0.706 µM; with Temozolomide it was more than 30 µM; in the experiment with IPA-3, more than 32 µM; with Tubastatin A it was more than 20 µM; in the experiment with CI-1040 it was more than 10 µM; with ZG-10, 1.27 µM.

As for “SK-MES-1 (lung squamous cell carcinoma, adherent)”, the AUC with XL-880 was determined as 0.775; with Temozolomide, 0.981; with IPA-3, 0.75; with Tubastatin A, 0.948; in the experiment with CI-1040, 0.802; in the experiment with ZG-10 it was 0.882. For the same cell line, the IC50 in the experiment with XL-880 is 2.21 µM; in the experiment with Temozolomide it was more than 30 µM; with IPA-3, 11.3 µM; in the experiment with Tubastatin A, more than 20 µM; in the experiment with CI-1040, 5.45 µM; in the experiment with ZG-10, more than 10 µM.

Consider KU-19-19 (bladder, adherent), for which the AUC in the experiment with XL-880 came to 0.876; with Temozolomide it was 0.975; with IPA-3 it was 0.95; in the experiment with Tubastatin A, 0.987; with CI-1040 it was 0.741; in the experiment with ZG-10 it was 0.755. Besides, the concentration for half-maximal inhibition (IC50) with XL-880 is 5.12 µM; in the experiment with Temozolomide, more than 30 µM; in the experiment with IPA-3, more than 32 µM; with Tubastatin A, more than 20 µM; with CI-1040 it was 3.06 µM; with ZG-10, 3.38 µM.

As to PCI-6A (head and neck, adherent), the AUC with XL-880 is 0.493; with Temozolomide, 0.964; in the experiment with IPA-3, 0.988; in the experiment with Tubastatin A it was 0.912; with CI-1040, 0.776; with ZG-10 it was 0.836. Further, the IC50 is 0.307 µM with XL-880; more than 30 µM with Temozolomide; more than 32 µM in the experiment with IPA-3; more than 20 µM with Tubastatin A; 3.91 µM with CI-1040; 6.47 µM with ZG-10.

Regarding HT-115 (large intestine, adherent), the AUC was 0.874 with XL-880; 0.991 in the experiment with Temozolomide; 0.983 in the experiment with IPA-3; 0.989 with Tubastatin A; 0.941 with CI-1040; 0.964 in the experiment with ZG-10. For the same cell line, the IC50 with XL-880 was 4.22 µM; with Temozolomide, more than 30 µM; in the experiment with IPA-3 it was more than 32 µM; in the experiment with Tubastatin A it was more than 20 µM; in the experiment with CI-1040, more than 10 µM; with ZG-10, more than 10 µM.

For IHH-4 (thyroid, semi-adherent), the AUC with XL-880 worked out at 0.697; with Temozolomide, 0.992; with IPA-3 it was 0.538; in the experiment with Tubastatin A it was 0.984; in the experiment with CI-1040, 0.626; in the experiment with ZG-10, 0.83. Also, the IC50 in the experiment with XL-880 is 1 µM; with Temozolomide, more than 30 µM; with IPA-3, 2.49 µM; with Tubastatin A it was more than 20 µM; with CI-1040 it was 1.29 µM; in the experiment with ZG-10, 4.65 µM.

Take CP50-MEL-B (melanoma, adherent): the AUC with XL-880 was found to be 0.658; with Temozolomide, 0.987; with IPA-3, 0.922; in the experiment with Tubastatin A it was 0.963; in the experiment with CI-1040, 0.348; with ZG-10, 0.796. For the same cell line, the IC50 is 0.876 µM with XL-880; more than 30 µM with Temozolomide; more than 32 µM with IPA-3; more than 20 µM with Tubastatin A; 0.238 µM with CI-1040; 4.61 µM with ZG-10.

“RERF-LC-Sq1 (lung squamous cell carcinoma, adherent)”: the AUC was determined as 0.757 with XL-880; 0.939 with Temozolomide; 0.962 with IPA-3; 0.961 in the experiment with Tubastatin A; 0.789 in the experiment with CI-1040; 0.759 with ZG-10. For the same cell line, the concentration for half-maximal inhibition (IC50) in the experiment with XL-880 is 2.57 µM; with Temozolomide it was more than 30 µM; with IPA-3 it was more than 32 µM; with Tubastatin A, more than 20 µM; with CI-1040 it was 6.9 µM; with ZG-10, 5.12 µM.

The values are drawn from the supplement of paper PMC4967469.
